# Reference: publication PMC4336329 (PLoS ONE, 2015)
# About 2,200 (0.71%) of roughly 310,000 compounds showed an effect of 50% or more. Effects have a minus sign here. Some of the results follow.
# Target: human ether-à-go-go-related gene (hERG) potassium channel (human, UniProt Q12809)
# Test: primary screen, population patch clamp on CHO cells stably expressing hERG
# Sequence of human ether-à-go-go-related gene (hERG) potassium channel (Q12809 whole entry, looked up): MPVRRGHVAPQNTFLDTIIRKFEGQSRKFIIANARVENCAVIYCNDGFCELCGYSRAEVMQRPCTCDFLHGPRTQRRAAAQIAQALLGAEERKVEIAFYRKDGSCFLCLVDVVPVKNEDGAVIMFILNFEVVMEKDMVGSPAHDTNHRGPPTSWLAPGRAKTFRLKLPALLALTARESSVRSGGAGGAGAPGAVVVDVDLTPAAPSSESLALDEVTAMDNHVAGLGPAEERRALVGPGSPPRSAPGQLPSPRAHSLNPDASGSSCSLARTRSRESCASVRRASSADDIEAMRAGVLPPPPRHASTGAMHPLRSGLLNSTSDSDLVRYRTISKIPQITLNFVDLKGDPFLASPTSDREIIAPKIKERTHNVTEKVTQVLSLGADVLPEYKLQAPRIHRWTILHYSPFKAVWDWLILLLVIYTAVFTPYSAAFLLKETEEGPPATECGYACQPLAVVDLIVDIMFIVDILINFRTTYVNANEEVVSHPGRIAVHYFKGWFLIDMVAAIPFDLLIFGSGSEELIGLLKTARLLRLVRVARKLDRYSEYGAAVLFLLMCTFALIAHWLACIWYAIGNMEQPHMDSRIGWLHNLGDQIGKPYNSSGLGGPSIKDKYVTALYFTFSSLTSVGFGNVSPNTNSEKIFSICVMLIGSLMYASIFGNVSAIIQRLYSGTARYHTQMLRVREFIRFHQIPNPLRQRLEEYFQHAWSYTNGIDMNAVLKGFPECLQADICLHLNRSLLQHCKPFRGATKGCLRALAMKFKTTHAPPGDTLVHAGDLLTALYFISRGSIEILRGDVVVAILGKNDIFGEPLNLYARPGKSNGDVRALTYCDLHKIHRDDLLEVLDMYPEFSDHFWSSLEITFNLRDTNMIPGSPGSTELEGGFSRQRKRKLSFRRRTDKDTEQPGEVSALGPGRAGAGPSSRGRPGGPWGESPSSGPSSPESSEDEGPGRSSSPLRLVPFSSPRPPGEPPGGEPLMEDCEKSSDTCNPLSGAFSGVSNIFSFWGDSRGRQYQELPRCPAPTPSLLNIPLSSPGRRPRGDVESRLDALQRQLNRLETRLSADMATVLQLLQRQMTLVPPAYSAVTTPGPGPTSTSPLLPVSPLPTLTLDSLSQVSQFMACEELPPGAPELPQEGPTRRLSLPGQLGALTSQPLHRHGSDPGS
row,Compound,"hERG current change (%, negative = inhibition) at 1uM"
1,CCN(CCCNC(=O)CNC(=O)c1nn(-c2ccc(OC)c(OC)c2)c(=O)c2ccccc12)c1ccccc1,0.102%
2,O=C(COC(=O)/C=C/c1ccccc1)Nc1cc(C(F)(F)F)ccc1N1CCOCC1,13.4%
3,CCCc1cc(=O)[nH]c(SCc2ccc(Cl)cc2)n1,4.07%
4,Cc1cccc(Nc2ncnc3ccc(Br)cc23)c1,-7.88%
5,CCOC(=O)C1CCN(C(=O)c2cc3c(=O)n4ccccc4nc3n2C)CC1,13.6%
6,COc1ccc(OC)c(NC(=O)CSc2nnc(CNC(=O)c3ccco3)o2)c1,21.1%
7,CC(C)[C@H](NS(=O)(=O)c1ccc2c(c1)OCCO2)C(=O)OCC(=O)Nc1ccccc1,3.74%
8,Cc1nnsc1SCCNC(=O)c1c(F)cccc1F,12.7%
9,COC(=O)CCC(=O)Nc1cccc(Cl)c1,-0.811%
10,O=C(CN1CCCCC1)Nc1ccccc1Cl,13.9%
11,COc1ccc2[nH]c(C(=O)NCCc3ccccc3)cc2c1,17.2%
12,O=C(c1ccco1)N1CCN(c2nc3ccsc3c(=O)s2)CC1,-74.5%
13,CCC(C(=O)NCc1ccco1)N(C(=O)CNS(=O)(=O)c1ccccc1)c1ccccc1C (stereo not shown),9.69%
14,O=C(c1cccs1)N1CCN=C1SCc1ccc(Cl)cc1,19.2%
15,CN(C)C(=O)/C(=C/c1ccc(-c2cccc([N+](=O)[O-])c2)o1)NC(=O)c1ccccc1,5.68%
16,O=C(COC(=O)Cc1ccccc1[N+](=O)[O-])NCc1ccc(F)cc1,14.2%
17,COc1ccc(CNC(=O)CN(C(=O)c2csnn2)c2ccc(F)cc2)cc1,11.2%
18,COc1cc(C(=O)NNC(=O)CN2C(=O)NC3(CCCC3)C2=O)cc(OC)c1OC,10.8%
19,CC1(C)Cc2noc(N)c2C(C)(C)N1OC(=O)c1cccs1,13.5%
20,Cc1cc(=O)oc2c1c(C)nn2-c1ccc(Cl)cc1,20.1%
21,COCc1c(C(=O)N2CCN(Cc3ccc(C#N)cc3)CC2)oc2ccccc12,-46.4%
22,COc1cccc(NC(=O)CN(C)C(=O)c2cc(C)oc2C)c1,10%
23,CC1CCCN(CCCNC(=O)CN2C(=O)COc3ccccc32)C1 (stereo not shown),4.31%
24,O=c1[nH]c(=O)n(CCc2ccccc2)c(O)c1C=NC1CC1,7.56%
25,COC(=O)Cc1c(C)c2ccc(OCC(=O)c3ccc(OC)c(OC)c3)cc2oc1=O,12.5%
26,COc1ccc(CN(Cc2cccn2C)C(=O)c2cc3cc(OC)ccc3[nH]2)cc1,-0.285%
27,O=C(CCc1ccccc1)NC(=S)Nc1ccccc1[N+](=O)[O-],4.39%
28,CCCOc1ccc(Cl)cc1CNc1ccccc1,11.9%

row,Compound,"hERG current change (%, negative = inhibition) at 1uM"
1,CC(=O)NC12CC3CC(C1)CC(C(=O)Nc1nccs1)(C3)C2,4.2%
2,COC(=O)[C@@]12CCCN1[C@H](c1ccc(-c3cccc(Cl)c3)cc1)[C@H]1C(=O)N(C)C(=O)[C@H]12.O=C(O)C(F)(F)F,6.1%
3,COc1ccc(C(=O)COC(=O)CN2C(=O)C3C4C=CC(C4)C3C2=O)cc1 (stereo not shown),7.85%
4,O=C(N/N=C/c1ccccc1)NC1CCCCC1,11%
5,O=S(=O)(NC1CCCCC1)c1cccc(-c2nnc(-c3ccccc3)o2)c1,-4.3%
6,Cc1ccc2c(c1)C1CN(C)CCC1N2S(=O)(=O)c1ccc(Oc2ccc([N+](=O)[O-])cc2)cc1 (stereo not shown),11.5%
7,CC1=NN(c2ccc(F)cc2)C(=O)C1C(c1cccc(O)c1)c1c(C)[nH]n(-c2ccc(F)cc2)c1=O (stereo not shown),4.93%
8,COCCn1nnnc1SCC(=O)N1CCCCC1,23.7%
9,COC(=O)c1nn(-c2ccc(C)cc2)c2nnc(Cc3ccccc3)c(=O)n12,12.8%
10,CC1(C(=O)OCC(=O)c2c[nH]c3ccccc23)CC1(Cl)Cl (stereo not shown),23.1%
11,CCSc1nnc(-c2cc(Br)ccc2N)c(=O)[nH]1,10.1%
12,O=C(COC(=O)c1ccc2c(c1)OCO2)Nc1cccc(F)c1,15.3%
13,CC(=O)c1ccc(NC(=O)C(C)Sc2n[nH]c(-c3cccnc3)n2)cc1 (stereo not shown),12.8%
14,CC(C)N1CCN(Cc2ccc(C#CC(C)(C)O)cc2)CC1CCO (stereo not shown),6.86%
15,O=C(CCS(=O)(=O)c1cccc2nonc12)NC1CCCCCC1,15.9%
16,NC(=O)CC(NC(=O)c1ccc(Br)cc1)c1ccc(N2CCN(c3ccccc3)CC2)c([N+](=O)[O-])c1 (stereo not shown),12.4%
17,Cn1c(=O)c(C(=O)NNC(=O)c2ccc(Br)cc2)c(O)c2ccccc21,15.4%
18,COc1ccc2ccc(=O)oc2c1CC(O)C(C)(C)O (stereo not shown),4.37%
19,Nc1ccccc1OCCOCCOc1ccccc1N,12.4%
20,COCC(C)NC(=O)CSc1nc2cc(S(=O)(=O)N3CCCCC3)ccc2o1 (stereo not shown),5.94%
21,COc1ccc(-c2c(C)sc(NC(=O)c3ccnn3C)c2C#N)cc1,5.99%
22,O=C(CN1CCN(c2ccc(O)cc2)CC1)N(C1CC1)C1CCS(=O)(=O)C1 (stereo not shown),-5.48%
23,Cl.OC(c1ccccc1)(c1ccc(F)cc1)C(c1ccccc1)N1CCOCC1 (stereo not shown),17.8%
24,COc1ccc(Cl)cc1C(=O)NNC(=O)CSc1nnc2ccccn12,7.9%
25,CCn1c(SCC(=O)N/N=C(\C)c2ccncc2)nnc1-c1ccc(C)cc1,9.86%
26,CCN1CCN(C(=O)CCc2nc3ccccc3n2-c2ccccc2)CC1,4.36%
27,O=C(N/N=C/c1cc2c(cc1[N+](=O)[O-])OCO2)c1ccc2c(c1)OCO2,18%
